The source gives no read counts; variants with many changes may rest on few reads.
B1: LINE1-mini (parent)
chain: GGCAGAGCUCAACACAGCGUGGCAAAGUGGCUGUGGCUAGACUGCC

Variants of: B1
Assay: self-cleavage, relative activity (ratio to wild type); higher = more cleavage; in vitro, sequencing; the parent is a self-cleaving ribozyme

**Q.** Which self-cleavage does the source give for GGCAGAGCUAAACACUCCGUGUCAAAGUGGCUGUGGGUAGGCUGCC [C10A A16U G17C G22U C37G A41G] here?
**A.** 0

**Q.** For GGCAGAGAUCAACACAGCGUGGCAAAGCGGCUGUGGCUCGACUGCC [C8A U28C A39C], which self-cleavage is on record?
**A.** 0.33

**Q.** Which self-cleavage does the source give for GUCAGAGCUCAAUACAGCGUGGAAAAGUGGCAGUGGCUAGACCGCC [G2U C13U C23A U32A U43C] here?
**A.** 0.01

**Q.** With GGGUGAGCUCGACACAGCGUGGCAAAUUGGCUGUGGCUAGACUGAC [C3G A4U A11G G27U C45A] as the variant, how does the self-cleavage read?
**A.** 0.03

**Q.** With GGCAGAGCUCAACACAGCGUGGCAAAGUGGCGGUGGCUAGUCUGGC [U32G A41U C45G] as the variant, how does the self-cleavage read?
**A.** 0.17

**Q.** Which self-cleavage does the source give for GGCAGAGCUCAACACACUGUGGGAAAGUGGCUGUGGCUGGACCGCC [G17C C18U C23G A39G U43C] here?
**A.** 0.01

**Q.** Which self-cleavage does the source give for GGCUGAGCUCAACACAGCCUUGCAAAGUGGCUGUGGCUAGACUGCC [A4U G19C G21U] here?
**A.** 0.4

**Q.** Which self-cleavage does the source give for GGCAGAGCUCAACACGGCGUGGCAAAUGGACUGUGUCUAGACUGCC [A16G G27U U28G G30A G36U] here?
**A.** 0.15

**Q.** With GGCAGAGCUCAACACAGCGCGGCAAAUUGGCUGUAGCUAGACUGCC [U20C G27U G35A] as the variant, how does the self-cleavage read?
**A.** 0.1

**Q.** Which self-cleavage does the source give for GGCAGAGCGCAACACAGCGUUGCAUAGUGGCUGUGGCUAGACUGCC [U9G G21U A25U] here?
**A.** 0.09

**Q.** With UGUAGAACUCAACACAGCGUGGCCAAGUGGCUGUGGCUAGACUGCC [G1U C3U G7A A24C] as the variant, how does the self-cleavage read?
**A.** 0.14

**Q.** For GGCUGAGCUCAACACAGUCUGCCAAAGAGGCUGUGGCUAGAAUGCC [A4U C18U G19C G22C U28A C42A], which self-cleavage is on record?
**A.** 0.02

**Q.** Which self-cleavage does the source give for UGCAGAGCUCAACACAGCGUGGCAAAAUUACUGUGGCUAGACUGCC [G1U G27A G29U G30A] here?
**A.** 0.53

**Q.** With GGCAGAGCUCAACACAGCGUGGCAAAGUAGUUGUGGCCUGACUGCC [G29A C31U U38C A39U] as the variant, how does the self-cleavage read?
**A.** 0.16

**Q.** With GGCAGAGCUCAGCAUAGCUUGGCAAACUGGCGGUGGCUAGACUGCC [A12G C15U G19U G27C U32G] as the variant, how does the self-cleavage read?
**A.** 0.01

**Q.** Which self-cleavage does the source give for GGAAGAGCUCAACACAGCGUGACAAAGUGGCUGUGGCUAGACCGCC [C3A G22A U43C] here?
**A.** 0.58

**Q.** With GGCAUAGUUCAACACAACGUGGCAAACUGGCUGUGGCUAGACUCCC [G5U C8U G17A G27C G44C] as the variant, how does the self-cleavage read?
**A.** 0.03

**Q.** Which self-cleavage does the source give for GGCAUAACUGAACGCAGCGUGGCAUAGUGGCUGUGGCUAGAUUGCC [G5U G7A C10G A14G A25U C42U] here?
**A.** 0.03

**Q.** For GGCAGAGCUCAACCCAGCCUGGCAAAGUGGCUGUGGCUAGACUUCC [A14C G19C G44U], which self-cleavage is on record?
**A.** 0.03

**Q.** With GGAAUAGCACAACACAGUGUGGCAAAGUGGCUGUGGCUAGACUGCC [C3A G5U U9A C18U] as the variant, how does the self-cleavage read?
**A.** 0.03

**Q.** Which self-cleavage does the source give for GGCAGAGCUCAACACAGCGUGGGAAGGUGGCUGUGGCUAAACUGCC [C23G A26G G40A] here?
**A.** 0.09

**Q.** With GGCAGAGCGCAACCCAGCGUCGCAAAGUGGCUGUGGCUAGACUGCC [U9G A14C G21C] as the variant, how does the self-cleavage read?
**A.** 0.03

**Q.** Which self-cleavage does the source give for GGCAGAGCUCAACACUGCGUGGCAAAGUGGCUGUGGAUAGACUGCU [A16U C37A C46U] here?
**A.** 0.02

**Q.** With GGCAGAGUUCAACACAGCUUCGCAAAGUGGCUGUGUCUAGAUUGCC [C8U G19U G21C G36U C42U] as the variant, how does the self-cleavage read?
**A.** 0.03

**Q.** With CGCCGAGCUCAACACAGCGUGGCAAAGUUGCUGUGGCUAGACUGCC [G1C A4C G29U] as the variant, how does the self-cleavage read?
**A.** 0.09

**Q.** For GACAGAGCUCAACACAGCGCGGCAAAGUCGCAGUGGCUAGACUGCC [G2A U20C G29C U32A], which self-cleavage is on record?
**A.** 0.28

**Q.** Which self-cleavage does the source give for GGAAGAGCUCAACACAGCGUGGCAAAGUGGCUGUGGGUAGACUCCC [C3A C37G G44C] here?
**A.** 0.01

**Q.** With GGCAGAGGUCAACACAGCGUGCCAAAGUGGCUGUGGCGAGACUGCC [C8G G22C U38G] as the variant, how does the self-cleavage read?
**A.** 0.02

**Q.** Which self-cleavage does the source give for GGCAGAGCCCAACACAGCGUCGCAAAGUGGCUGUAGCUAGACUGGC [U9C G21C G35A C45G] here?
**A.** 0.01

**Q.** With GGCAGAUCUCAUCACAGCGUGGCAAAGUGGCUGUGGCUAUACUGCU [G7U A12U G40U C46U] as the variant, how does the self-cleavage read?
**A.** 0.23

**Q.** Which self-cleavage does the source give for GGCAGUGCUCAACACAGCGUUGCAAAGUGGCUGUGGAUAGACUGCG [A6U G21U C37A C46G] here?
**A.** 0.12

**Q.** With GGCAGAGAUCAACACAUCGUUGCAAAGUUGCUGUGGCUAGACUGCC [C8A G17U G21U G29U] as the variant, how does the self-cleavage read?
**A.** 0.09

**Q.** Which self-cleavage does the source give for GCCAGAGCUCACCUCAGCGUGGCAAAUUAGCUGUUGCUAGACUGCC [G2C A12C A14U G27U G29A G35U] here?
**A.** 0

**Q.** For GACAGAGCUUAACACAGCGUGGCAAAGUGUCUGUGGCAAGACUGCC [G2A C10U G30U U38A], which self-cleavage is on record?
**A.** 0.14

**Q.** With GGCCCAGCUCAACACAGCGUGGCAAAGUGGCUGUGGAUUGACUGCC [A4C G5C C37A A39U] as the variant, how does the self-cleavage read?
**A.** 0.11

**Q.** Which self-cleavage does the source give for GGCGGAGCUCAACACAGCGUGGCAAAGAGGCUGUGGCUAAACUGCC [A4G U28A G40A] here?
**A.** 0.03

**Q.** Which self-cleavage does the source give for GGCAGAGCUCCACACAGCGUGGCAAGGUGGCUGUGGCUAUACUGCC [A11C A26G G40U] here?
**A.** 0

**Q.** Which self-cleavage does the source give for GGCAGAGCUCAACACAGCGUGCCAAAGUGUCUGUGGCUAUACUGCC [G22C G30U G40U] here?
**A.** 0.09

**Q.** Which self-cleavage does the source give for GGCACAGCUCAACACAGCGUGGCAAAGGGGCUGUGGCUAGACUACC [G5C U28G G44A] here?
**A.** 0.02

**Q.** With GGCAGAGCUCUGCACAGCGUGGCAAAGUGCCUGUGGCUAGACAGCC [A11U A12G G30C U43A] as the variant, how does the self-cleavage read?
**A.** 0.01

**Q.** Which self-cleavage does the source give for GGAAGAGCUCAACACAGCUUGGCAAGGUGGCUUUGGCUAGACUGCC [C3A G19U A26G G33U] here?
**A.** 0.05

**Q.** For GGCAGAGCUCAACACAGCAUGGCAGAGUGGCUGUAGCUAGACUCCC [G19A A25G G35A G44C], which self-cleavage is on record?
**A.** 0.06

**Q.** With GGCAGUGCUCAACACAGCGUGGCAAAGUGGCUGUGGGAAGACUGCC [A6U C37G U38A] as the variant, how does the self-cleavage read?
**A.** 0.04

**Q.** Which self-cleavage does the source give for GGCAGAGCUCAACACAGCGGGGCAAAGUGGCUGUGGAUAGACUGCU [U20G C37A C46U] here?
**A.** 0.03

**Q.** With GGGAGAGCUCAACACAGCGUAGCAAAGUGGCUGUGUCUAGACUGCC [C3G G21A G36U] as the variant, how does the self-cleavage read?
**A.** 0.88

**Q.** For GGCAGAGCUCAACACAGCGUGGCAAAGUUGCUUUGUCUAGACUGCC [G29U G33U G36U], which self-cleavage is on record?
**A.** 0.06

**Q.** For GGCAGAGCUCAACACAGCGUGGCAAAGUGGCUGUGGUUAGAGUACC [C37U C42G G44A], which self-cleavage is on record?
**A.** 0.04

**Q.** With AGCAUAGCUCAACACAGCGUGGCAAAGUGGCUUUGGCUAGACUGCC [G1A G5U G33U] as the variant, how does the self-cleavage read?
**A.** 0.04

**Q.** Which self-cleavage does the source give for GGCAGAGCUCAACAAAGCGUGGCGAAGUGGCUGUGGCUAGAAUGUC [C15A A24G C42A C45U] here?
**A.** 0.06

**Q.** With UGCAGACCUCAACACAGCGUGGCAAAGUGGCUGCGGUCAGACUGCC [G1U G7C U34C C37U U38C] as the variant, how does the self-cleavage read?
**A.** 0.1

**Q.** For GGCAGAGCUCAACACAGCGUGACAAAGUCGCUAUGGCUAGACUGCG [G22A G29C G33A C46G], which self-cleavage is on record?
**A.** 0.81

**Q.** Which self-cleavage does the source give for GGCAGAGCUCAACACAGCGUUGCAAAGUGGCGGUGGCCAGACUGCC [G21U U32G U38C] here?
**A.** 0.1

**Q.** For GGCAGAGCUCCACACAGCGUGGCAAAGUGUCUAUGGCUAGACUGCC [A11C G30U G33A], which self-cleavage is on record?
**A.** 0.02

**Q.** With GGCAGUGCUCAACAAAGAGCGGCAAAGUCGCUGUGGCUAGACUGCC [A6U C15A C18A U20C G29C] as the variant, how does the self-cleavage read?
**A.** 0.21

**Q.** For GUCAGAGCUCAACACAGCGUGGCAAAUUGGCUGUGGCCAGACGGCC [G2U G27U U38C U43G], which self-cleavage is on record?
**A.** 0

**Q.** For GGCAGAGCUCAACACAGUGUGGCAAAGUUGCUGUGGCGAGACUGCC [C18U G29U U38G], which self-cleavage is on record?
**A.** 0.45
